B1: CCCUUAA (DNA:RNA)
RNA: GGGAGACCGGAAUUCAGAUUGUCCCCCUUAAUUAAAUCCCGUCGUAGCCACCA
DNA 1: CAATCTGAATTCCGGTCTCCC
DNA 2: TGGTGGCTACGACGGGATT
B2: UUGAAGG (DNA:RNA)
RNA: GGGAGACCGGAAUUCAGAUUGUCCUUGAAGGUUAAAUCCCGUCGUAGCCACCA
DNA 1: CAATCTGAATTCCGGTCTCCC
DNA 2: TGGTGGCTACGACGGGATT
B3: AGCUUCC (DNA:RNA)
RNA: B1 RNA with C25A, C26G, A30C, A31C
DNA 1: CAATCTGAATTCCGGTCTCCC
DNA 2: TGGTGGCTACGACGGGATT
B4: AACGACC (DNA:RNA)
RNA: B1 RNA with C25A, C26A, U28G, U29A, A30C, A31C
DNA 1: CAATCTGAATTCCGGTCTCCC
DNA 2: TGGTGGCTACGACGGGATT
B5: AUGCUCA (DNA:RNA)
RNA: B1 RNA with C25A, C26U, C27G, U28C, A30C
DNA 1: CAATCTGAATTCCGGTCTCCC
DNA 2: TGGTGGCTACGACGGGATT
B6: GAUUCGG (DNA:RNA)
RNA: B2 RNA with U25G, U26A, G27U, A28U, A29C
DNA 1: CAATCTGAATTCCGGTCTCCC
DNA 2: TGGTGGCTACGACGGGATT
B7: CCGCAAC (DNA:RNA)
RNA: B1 RNA with C27G, U28C, U29A, A31C
DNA 1: CAATCTGAATTCCGGTCTCCC
DNA 2: TGGTGGCTACGACGGGATT
B8: GUGAAAA (DNA:RNA)
RNA: B2 RNA with U25G, G30A, G31A
DNA 1: CAATCTGAATTCCGGTCTCCC
DNA 2: TGGTGGCTACGACGGGATT
B9: UUAGCCU (DNA:RNA)
RNA: B2 RNA with G27A, A28G, A29C, G30C, G31U
DNA 1: CAATCTGAATTCCGGTCTCCC
DNA 2: TGGTGGCTACGACGGGATT
B10: UUAUUCG (DNA:RNA)
RNA: B2 RNA with G27A, A28U, A29U, G30C
DNA 1: CAATCTGAATTCCGGTCTCCC
DNA 2: TGGTGGCTACGACGGGATT
B11: UCUGGGU (DNA:RNA)
RNA: B2 RNA with U26C, G27U, A28G, A29G, G31U
DNA 1: CAATCTGAATTCCGGTCTCCC
DNA 2: TGGTGGCTACGACGGGATT
B12: ACCGUAC (DNA:RNA)
RNA: B1 RNA with C25A, U28G, A31C
DNA 1: CAATCTGAATTCCGGTCTCCC
DNA 2: TGGTGGCTACGACGGGATT
B13: CAAUACU (DNA:RNA)
RNA: B1 RNA with C26A, C27A, U29A, A30C, A31U
DNA 1: CAATCTGAATTCCGGTCTCCC
DNA 2: TGGTGGCTACGACGGGATT
B14: GCAGCAC (DNA:RNA)
RNA: B1 RNA with C25G, C27A, U28G, U29C, A31C
DNA 1: CAATCTGAATTCCGGTCTCCC
DNA 2: TGGTGGCTACGACGGGATT
B15: ACCCUUG (DNA:RNA)
RNA: B1 RNA with C25A, U28C, A30U, A31G
DNA 1: CAATCTGAATTCCGGTCTCCC
DNA 2: TGGTGGCTACGACGGGATT
B16: AGGCUCC (DNA:RNA)
RNA: B1 RNA with C25A, C26G, C27G, U28C, A30C, A31C
DNA 1: CAATCTGAATTCCGGTCTCCC
DNA 2: TGGTGGCTACGACGGGATT
B17: CUCCGAA (DNA:RNA)
RNA: B1 RNA with C26U, U28C, U29G
DNA 1: CAATCTGAATTCCGGTCTCCC
DNA 2: TGGTGGCTACGACGGGATT
B18: ACAACUU (DNA:RNA)
RNA: B1 RNA with C25A, C27A, U28A, U29C, A30U, A31U
DNA 1: CAATCTGAATTCCGGTCTCCC
DNA 2: TGGTGGCTACGACGGGATT
B19: UGGAACC (DNA:RNA)
RNA: B2 RNA with U26G, G30C, G31C
DNA 1: CAATCTGAATTCCGGTCTCCC
DNA 2: TGGTGGCTACGACGGGATT
B20: CAUGCUC (DNA:RNA)
RNA: B1 RNA with C26A, C27U, U28G, U29C, A30U, A31C
DNA 1: CAATCTGAATTCCGGTCTCCC
DNA 2: TGGTGGCTACGACGGGATT

Numbering of substitutions follows the chain as printed; changes in the protein carry UniProt numbers. Some of the results follow.

This assay concerns the target T1, RBFOX1 RRM RbFoxmut (Fox-RRM*) (Homo sapiens, UniProt Q9NWB1 109-208, R118D;E147R;N151S;E152T).
T1 sequence: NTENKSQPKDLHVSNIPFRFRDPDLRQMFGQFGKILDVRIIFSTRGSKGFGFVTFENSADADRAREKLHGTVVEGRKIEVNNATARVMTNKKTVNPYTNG
The experiment in a line: EMSA; HiTS-Eq, 1 nM pool, 10 min; buffer printed only for the single-RNA assays: 10 mM Tris pH 7.5, 150 mM NaCl, 3.4 mM EDTA, 0.001% NP-40, 30 C. The conditions noted are these: tags: His6 N-terminal (pET28a); label: 5' 32P. In a few lines:
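Purified RbFox RRM, wild type or mutant, was incubated for 10 min in 50 µL with 1 nM of a 5′-radiolabelled RNA pool carrying 7 randomized nucleotides, whose flanks were annealed to DNA oligonucleotides, over a series of increasing protein concentrations. Unbound RNA was resolved on 8% native PAGE, cut out, reverse-transcribed, barcoded by PCR and sequenced on an Illumina HiSeq 2500. Relative association constants were derived from changes in read counts for each RNA species versus the control reaction and normalised to the cognate motif.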
B1: the binding signal was 0.097 KA relative to UGCAUGU. Regarding B2, the binding signal is 0.0887 KA relative to UGCAUGU.

For B3, the binding signal is 0.0581 KA relative to UGCAUGU. Next, B4: 0.0712 KA relative to UGCAUGU; B5: 0.1 KA relative to UGCAUGU; B6: 0.0755 KA relative to UGCAUGU. Turning to B7, the binding signal is 0.0882 KA relative to UGCAUGU.

On to B8, for which the binding signal was 0.095 KA relative to UGCAUGU. B9: the binding signal was 0.0889 KA relative to UGCAUGU.

For the molecule B10, the binding signal is 0.122 KA relative to UGCAUGU. For B11, the binding signal is 0.0963 KA relative to UGCAUGU. Take B12: the binding signal is 0.126 KA relative to UGCAUGU. On to B13, for which the binding signal is 0.116 KA relative to UGCAUGU. Take B14: the binding signal was 0.084 KA relative to UGCAUGU. As to B15, the binding signal is 0.117 KA relative to UGCAUGU. The same measure for B16: 0.0889 KA relative to UGCAUGU; for B17: 0.104 KA relative to UGCAUGU.

Consider B18, for which the binding signal is 0.0702 KA relative to UGCAUGU. Next, B19: 0.196 KA relative to UGCAUGU; B20: 0.0741 KA relative to UGCAUGU.

Values taken from publication PMC9911399, “Two distinct binding modes provide the RNA-binding protein RbFox with extraordinary sequence specificity”.
